Hit rate of the full screen: of about 410,000 compounds, about 1,200 (0.29%) were called active. This list was built around the results that the source calls inconclusive (neither active nor inactive); the mix of calls is not that of the screen. Calls come from the whole dose curve; as a rule, active = well fitted activation curve with a large enough effect; inconclusive = small, poorly fitted or top-dose-only effect; inactive = flat fitted curve, though single readings scatter. Potencies beside an inconclusive call are fits to weak or partial responses and may not hold up.
Experiment: qHTS of Nrf2 Activators; note: nearly all actives have a fitted effect of over 65% in size; for activation: % of control where 0% means no effect
Settings: AREc32 ARE-luciferase reporter (MCF7-derived line), luminescence, 24 h; activation: at 46.1 µM (top of the series)
Summary of the method: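 Steps: seed AREc32_Fluc cells (1000/well, 5% FBS OPTI-MEM); incubate overnight at 37 deg C; add 23 nL compound; incubate 24 hr; add Steady-Glo; hold 30 min RT; read luminescence.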
Potency is the fitted concentration of half-maximal effect; tags give direction and shape of the fitted curve.

For `O=C(/C=C/c1ccco1)NCCc1ccc(F)cc1`, which Potency is on record?
The Potency was active: 14.1 µM.

With `Oc1ccc(Nc2ncnc3c2oc2ccccc23)cc1` as the compound, how does the Potency read?
The Potency was inconclusive: 14.1 µM [activator, partial curve, poor fit].

Which Potency does the source give for `Cc1cc(C(=O)Cn2ncc(Cl)c(Cl)c2=O)c(C)n1CC(F)(F)F` here?
Its Potency is inconclusive: 3.55 µM [activator, partial curve, poor fit].

With `Cc1cccc(N2CCN(C(=O)C3CCN(S(=O)(=O)c4c(C)noc4/C=C/c4ccccc4F)CC3)CC2)c1C` as the compound, how does the Potency read?
The Potency was inconclusive: 35.5 µM [activator, single point].

For `Cc1noc(C)c1COC(=O)c1cc2c(C)nn(-c3ccc(F)cc3)c2s1`, which “activation” value is on record?
The value was inactive: -0.553%.

Which Potency does the source give for `COc1nc(N)nc(NC(=O)c2cccs2)c1N=O` here?
The Potency was inconclusive: 17.8 µM [activator, single point].

For `Cc1ccc(NC(=O)CSc2nccn2C2CCCC2)cc1`, which “activation” value is on record?
Its value is inactive: 1.08%.

With `O=C(Nc1cc2nn(-c3ccccc3)nc2cc1Cl)c1ccco1` as the compound, how does the Potency read?
The Potency was active: 1 µM.

For `O=C(Nc1ccc(Cc2ccc(NC(=O)Nc3cccnc3)cc2)cc1)Nc1cccnc1`, which “activation” value is on record?
The value was inactive: 5.18%.

Which Potency does the source give for `Cc1csc2c(=O)sc(NC(=O)c3ccco3)nc12` here?
The Potency was inconclusive: 2 µM [activator, full curve, poor fit].

For `COc1ccc(/C=N\NS(=O)(=O)c2ccc(Cl)cc2)cc1COc1ccccc1[N+](=O)[O-]`, which Potency is on record?
Its Potency is inconclusive: 11.2 µM [activator, partial curve, poor fit].

With `O=C(N/C=C/c1ccccc1)c1ccccc1` as the compound, how does the Potency read?
The Potency was inconclusive: 17.8 µM [activator, single point].

Which Potency does the source give for `O=S(=O)(CCSc1ccccn1)c1nc2ccccc2s1` here?
The Potency was inconclusive: 3.55 µM [activator, single point].

For `CCNc1ccc(Br)cc(C(=O)/C=C/c2ccc3c(c2)OCO3)c1=O`, which Potency is on record?
Its Potency is inconclusive: 31.6 µM [activator, single point].

Which Potency does the source give for `Clc1ccc(-c2nnc(-c3ccccc3Cl)o2)cc1` here?
The Potency was inconclusive: 6.31 µM [activator, partial curve, poor fit].

For `Cc1cc(C)c[n+](C(C)C(=O)c2ccc(-c3ccccc3)cc2)c1` (stereo not drawn), which “activation” value is on record?
The value was inactive: -0.357%.

For `CCc1nnc(NC(=O)c2cc(-c3ccco3)nc3ccccc23)s1`, which Potency is on record?
The Potency was inconclusive: 12.6 µM [activator, partial curve, poor fit].

Which “activation” value does the source give for `Cc1cccc(C)c1-n1nnnc1C(c1ccccc1OC(F)(F)F)N1CCN(C/C=C/c2ccccc2)CC1` (stereo not drawn) here?
Its value is inactive: 0.789%.

Which Potency does the source give for `CC(=O)ON=C1C=CC(=C(C#N)c2ccccc2)C=C1` here?
The Potency was inconclusive: 0.631 µM [activator, full curve, poor fit].

With `CC(C)Cn1cnc2c(c(-c3ccccc3)c(-c3ccccc3)n2Cc2ccco2)c1=N` as the compound, how does the “activation” value read?
The value was inactive: 3.05%.

With `CC(C)Cn1c(C23CC4CC(CC(C4)C2)C3)n[nH]c1=S` as the compound, how does the “activation” value read?
The value was inactive: 2.81%.

With `COC(=O)c1sccc1NC(=O)c1csc(C)c1` as the compound, how does the Potency read?
The Potency was active: 5.01 µM.

Which “activation” value does the source give for `CC(NC(=O)c1cc(F)c(F)cc1Cl)C1CC2CCC1C2` (stereo not drawn) here?
Its value is inactive: 2.12%.

With `CC(=O)N(C)c1ccc(C=C2C=Cc3ccccc32)cc1` as the compound, how does the Potency read?
The Potency was inconclusive: 35.5 µM [activator, single point].

With `O=S(=O)(c1ccc(Cl)cc1)c1cc(O)ccc1O` as the compound, how does the Potency read?
The Potency was inconclusive: 31.6 µM [activator, single point].

For `CCCCCCCCCC[N+](C)(C)CC/C=C1/c2ccccc2Sc2ccc(Cl)cc21`, which “activation” value is on record?
The value was inactive: -3.53%.

For `Cc1ncc(C23CC4CC(CC(C4)C2)C3)[nH]1`, which “activation” value is on record?
The value was inactive: -0.291%.

For `O=C(CNc1cccc(S(=O)(=O)N2CCOCC2)c1)Nc1cccc(Br)c1`, which “activation” value is on record?
Its value is inactive: 2.21%.

With `COc1ccc(Oc2coc3c(CN(C)C)c(O)ccc3c2=O)cc1` as the compound, how does the “activation” value read?
The value was inactive: -0.2%.

With `COc1ccc(OCC(=O)Nc2ccccc2C(=O)OCc2cc(=O)n3nc(C)sc3n2)cc1` as the compound, how does the “activation” value read?
The value was inactive: -0.0479%.

Which Potency does the source give for `COC(=O)C[C@H]1c2cc(C(F)(F)F)ccc2S(=O)(=O)N1C(C)(C)C` here?
Its Potency is inconclusive: 20 µM [activator, single point].

With `CCc1cc(SC#N)ccc1N` as the compound, how does the Potency read?
The Potency was inconclusive: 31.6 µM [activator, single point].

Which Potency does the source give for `O=C(Nc1nccs1)c1ncc(Cl)c(Cl)c1Cl` here?
Its Potency is inconclusive: 11.2 µM [activator, partial curve, poor fit].

For `COc1ccc(OC)c(NC2=C(Cl)C(=O)N(Cc3ccccc3)C2=O)c1`, which Potency is on record?
The Potency was inconclusive: 20 µM [activator, single point].

Which Potency does the source give for `CN1C(=O)CC(c2ccco2)Sc2ccccc21` (stereo not drawn) here?
Its Potency is inconclusive: 17.8 µM [activator, single point].

With `CCOC(=O)c1c(NC(=O)C(=O)N/N=C/c2ccc(OCC)cc2)sc2c1CCCCC2` as the compound, how does the “activation” value read?
Its value is inactive: 0.208%.

Which Potency does the source give for `O=[N+]([O-])c1cc([N+](=O)[O-])c2cccnc2c1Oc1ccccc1O` here?
Its Potency is inconclusive: 31.6 µM [activator, single point].

Which Potency does the source give for `COc1cc(OCc2ccccc2)c(C(=O)/C=C/c2ccc3c(c2)OCO3)c(OC)c1OC` here?
Its Potency is inconclusive: 3.98 µM [activator, full curve, poor fit].

Which Potency does the source give for `O=C(Cn1sc2ccccc2c1=O)Nc1ccccc1` here?
Its Potency is inconclusive: 12.6 µM [activator, single point].

Which Potency does the source give for `O=c1[nH]nc(SCCS(=O)(=O)c2ccc(F)cc2)n1-c1ccc2c(c1)OCCO2` here?
The Potency was active: 12.6 µM.

Which Potency does the source give for `Cc1cc(O)ccc1N/C=C(\C#N)c1nc2ccccc2o1` here?
The Potency was inconclusive: 3.16 µM [activator, partial curve, poor fit].

For `NNC(=O)c1oc2nc(-c3ccccc3)cc(-c3ccccc3)c2c1N`, which “activation” value is on record?
Its value is inactive: 1.16%.

Which “activation” value does the source give for `CC(=O)c1ccc(NC(=O)Nc2ccc([N+](=O)[O-])cc2)cc1` here?
The value was inactive: -0.424%.

For `COc1ccc(Br)cc1/C=N/N1C(=O)CSC1=S`, which Potency is on record?
Its Potency is inconclusive: 15.8 µM [activator, single point].

With `CCN(CC)c1ccc2cc(-c3nc4ccccc4[nH]3)c(=O)oc2c1` as the compound, how does the “activation” value read?
Its value is inactive: -0.05%.

Which Potency does the source give for `CS(=O)(=O)c1ccc2nc(NC(=O)CCS(=O)(=O)c3ccccc3)sc2c1` here?
The Potency was inconclusive: 2.82 µM [activator, full curve, poor fit].

With `CC1CC(C)CN(CCCNS(=O)(=O)c2ccc3c(c2)CCN3C(=O)C2CC2)C1` (stereo not drawn) as the compound, how does the “activation” value read?
Its value is inactive: -0.342%.

For `O=C(/C=C/c1ccccc1[N+](=O)[O-])N1CCc2ccccc2C1`, which Potency is on record?
Its Potency is active: 8.91 µM.
